Reference: PubChem BioAssay (NCATS)
The shares of active, inactive and inconclusive entries below differ from those in the screen. Potencies beside an inconclusive call are fits to weak or partial responses and may not hold up. Active and inactive are the calls of the source. Calls follow the shape of the dose curve; as a rule, active = well fitted curve in the direction sought with a large enough effect; inconclusive = small, poorly fitted or top-dose-only effect, or another doubt; inactive = no such curve, though single readings can be large; an effect the other way counts as inactive or inconclusive.

Key:
[1] = Viability qHTS for spleen associated tyrosine kinase inhibitor (SYKi) naive MV4-11 cells (AID 1963823); conditions: MV4-11 AML viability, CellTiter-Glo luminescence, 72 h; viability (% of control): at 45 µM (top of the series); also: nearly all actives have a fitted effect of over 40% in size
Method in brief: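 Compounds were dispensed acoustically onto plates, MV4-11 cells (SYKi-naive) added at 500 per well, and plates incubated 72 hr at 37 C. CellTiter-Glo was added and luminescence measured after 10 min.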

[2] = Cellular viability qHTS for adrenocortical cancer (ACC) cell line SW-13 (AID 1963989); conditions: SW-13 ACC cells viability, CellTiter-Glo, 48 h; activity (max response): stronger effect = lower value; also: nearly all actives have a fitted effect of over 65% in size;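 as to activity (max response): cells grown in serum-free medium with ITS supplement; % is scaled to controls: 0 for no effect and ±100 for the full control effect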
Method in brief: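 Viability was read as CellTiter-Glo luminescence after 48 h compound treatment (up to 46 uM final) of SW-13 cells grown serum-free; titration curves were fit with a four-parameter logistic model to give IC50 and efficacy.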
Potency is read from the fitted curve at half-maximal effect; tags tell the direction and shape of the fitted curve.

Structure (SMILES) | Potency [1] | Potency [2] | activity (max response) [2]
Nc1ncc(C(=O)NC2CN(C(=O)C3CC3)C2)c2ccc(-c3cccc(F)c3)nc12 | inconclusive: 9.34 µM [cytotoxic, partial curve] | inconclusive: 1.78 µM [cytotoxic, full curve] | 
COCCOC(=O)N1CCN(S(=O)(=O)c2cc(F)c(Oc3ccc(Cl)cc3)c(F)c2)C(C(=O)NO)C1 (stereo not drawn) | active: 5.9 µM | active: 5.01 µM | 
CC(=O)NC(=O)c1ccccc1O | inactive |  | inactive: -23.9%
CCCS(=O)(=O)c1nc(NC2CC2)cc(-c2ccc3c(ccn3C3CC(C)(C)NC(C)(C)C3)c2)n1 | active: 1.75 µM | inconclusive: 10.9 µM [cytotoxic, single point] | 
NC(N)=NN=C(/C=C/c1ccc([N+](=O)[O-])o1)/C=C/c1ccc([N+](=O)[O-])o1 | inconclusive: 5.96 µM [cytotoxic, full curve] | active: 2.59 µM | 
CC1CCCCN1CCCOC(=O)c1ccc(OC2CCCCC2)cc1 (stereo not drawn) | active: 8.41 µM | inconclusive: 20.6 µM [cytotoxic, single point] | 
NC1CCN(c2cccc(Cl)n2)CC1 | inconclusive: 0.0012 µM [cytotoxic, full curve, poor fit] |  | inactive: 2.41%
CS(=O)(=O)c1ccc([C@@H](CC2CCCC2)C(=O)Nc2nccs2)cc1 | active: 8.33 µM | inconclusive: 35.5 µM [cytotoxic, single point] | 
Cn1cc(-c2cnn3c(N)c(Br)c(C4CCCNC4)nc23)cn1 (stereo not drawn) | active: 0.291 µM | inconclusive: 10 µM [cytotoxic, full curve] | 
